The text below walks through data of paper PMC10726135.

The list shows a part of the results. At the low end of the ranking the order means little. The protein was read in a cell extract, so binding may be indirect.

In the test the target is T1, HNF4alpha2 (COS-7 nuclear extract) (UniProt P41235).
T1 sequence: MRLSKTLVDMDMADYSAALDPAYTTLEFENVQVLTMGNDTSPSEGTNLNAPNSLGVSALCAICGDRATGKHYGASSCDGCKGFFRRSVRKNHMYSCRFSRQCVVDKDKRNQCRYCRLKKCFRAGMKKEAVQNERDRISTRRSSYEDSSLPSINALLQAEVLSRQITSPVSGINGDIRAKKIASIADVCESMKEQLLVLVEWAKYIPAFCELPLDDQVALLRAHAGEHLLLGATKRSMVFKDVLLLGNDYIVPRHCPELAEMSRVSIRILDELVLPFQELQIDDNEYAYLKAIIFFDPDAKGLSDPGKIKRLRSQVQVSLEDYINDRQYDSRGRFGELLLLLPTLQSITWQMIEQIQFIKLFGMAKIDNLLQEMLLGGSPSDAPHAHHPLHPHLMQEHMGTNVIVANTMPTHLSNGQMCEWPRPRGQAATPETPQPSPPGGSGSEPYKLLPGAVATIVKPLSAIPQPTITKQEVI
Nature of the test: protein-binding microarray. The settings on record: COS-7 nuclear extract on double-stranded Agilent 4x180k PBM; binding buffer, salt, pH and temperature not given; high values mean tight binding; double strand, one strand shown; sequences stand for … in …GCCTAGGGAGATTAGAGTATCGGTCGA
For the sequence TTTAATTCTGAGTTCCAATAGCAAAACCTG, the binding signal (log2 normalized intensity) was -1.1.

Consider CCCACAGTGCCCTCTATTGGCTGTTTAGTA, for which the binding signal (log2 normalized intensity) was 1.58.

With AGCCCTAACCAGGGGTGGGGACCTTTGGGC, the binding signal (log2 normalized intensity) is 3.12.

CTTTCATACGTTTAACAGTTCCTCCTGGAA: the binding signal (log2 normalized intensity) amounted to 1.18.

Take TCCCCGGGCGGGATGGGGTCACGAGACGGT: the binding signal (log2 normalized intensity) was 1.72.

Regarding CATTCCAGAAAGACAGCTGCATTTGTCCGG, the binding signal (log2 normalized intensity) came out at 0.39.

As for TGTCTTTGGGTGGAGGGGAGGTTATCTTGG, the binding signal (log2 normalized intensity) came to 1.23.

Take AGTGAAGACTGAAAAGAGATAACTAGATGA: the binding signal (log2 normalized intensity) is -1.05.

Take GACCTAGATGGAATGTTGTGTCTTCCAGTT: the binding signal (log2 normalized intensity) came to 1.63.

Turning to CCTGTTTGACCTTCGAACCCTTGCCATTTA, the binding signal (log2 normalized intensity) worked out at 7.04.

In the case of TGAATGCCTAGGTGACAAGGAAAACTACAC, the binding signal (log2 normalized intensity) is -1.11.

As to GTGAGTGGACTTTGGTCCTGGTCAGACTTG, the binding signal (log2 normalized intensity) came out at 5.76.

Regarding GGTCCAGCCTACCCACCCACACCTCCCCTT, the binding signal (log2 normalized intensity) came to 4.58.

AAAGCCTAAAATATTCACTATCTGATCCTT: the binding signal (log2 normalized intensity) is -0.95.

On to ATAAGCTCTGCGCCCTTGGAATATCCTGCC, for which the binding signal (log2 normalized intensity) was -1.09.

Take CCGCTTGGCCCTCTTCCAAGTGTTCTTTAC: the binding signal (log2 normalized intensity) came out at 1.87.

With AAGTTCAGTCGAATTTGGTTACTCGCCTTA, the binding signal (log2 normalized intensity) was -1.2.

For the sequence CCTCATGCCTTATCTACATAGTCCCTGCAC, the binding signal (log2 normalized intensity) was found to be 0.727.

In the case of TAGAAGTACTAGATTTGGAACTCAGAGTTT, the binding signal (log2 normalized intensity) came out at 0.363.

For the sequence TAAACCCCTGGAGCACAGAAGGAGGGCGGG, the binding signal (log2 normalized intensity) is -1.08.

As for CAGTCAATTACATGGCAGATGTCTGTGTTC, the binding signal (log2 normalized intensity) came out at 1.87.

For TGCATATCAGCATGGCTGCAGAGAACAGCA, the binding signal (log2 normalized intensity) was -1.21.

For TGGGGAGGTTTGGCTGAGAGGGATAAAAGG, the binding signal (log2 normalized intensity) was -1.07.

As to TGGGGGCCACGCACACCTGGATCTTCCAGG, the binding signal (log2 normalized intensity) was -1.15.

For TGCAACAGTGACCCAAATATGGTCCCTGAC, the binding signal (log2 normalized intensity) was -1.13.

Consider TCACATACTGTGGACATAAAAAGATAATGC, for which the binding signal (log2 normalized intensity) was -1.07.

Take GATCACTGCCTTGGAGGCACTCCCAGGATA: the binding signal (log2 normalized intensity) was -1.1.

Regarding TTGACGCCACCTGAAGGCAGGTGTGGGTTG, the binding signal (log2 normalized intensity) stood at 1.41.

For the sequence CATCAGATCTGGGTGTGCCATTCTTCCAGT, the binding signal (log2 normalized intensity) is 0.748.

As to GATGAGGCACCAACACTTCCCAATCAGAAA, the binding signal (log2 normalized intensity) was -1.22.

For the sequence CCACGGCAACCTTCCTGGAAACCTTCTCTG, the binding signal (log2 normalized intensity) is -0.777.

In the case of CCAACAGGTGAAGACATGCTGGTGTGTGAT, the binding signal (log2 normalized intensity) was found to be 1.54.

For TGTCCACCAAGGAGGTGCTGACAGGCCCTC, the binding signal (log2 normalized intensity) was -1.17.

On to CCATAGAGTCCACCACTGACCTTAGACCCT, for which the binding signal (log2 normalized intensity) came to 5.78.

In the case of GCCTCTTTATCTCCTCCCCTTGAGACTTTA, the binding signal (log2 normalized intensity) was found to be 2.85.

On to ACAGGGCAAGGAACGGAATGTGTGATAAGG, for which the binding signal (log2 normalized intensity) stood at 0.42.

In the case of CTAGGCAGTCCACAGACAAAGGCCCGCTGC, the binding signal (log2 normalized intensity) is -1.1.

As for CCGCGCCCAGCGGTTCCGGGCGGCAGCACA, the binding signal (log2 normalized intensity) is -1.2.

On to TGCATTGTGGTATTCATTCAACTTTGACTT, for which the binding signal (log2 normalized intensity) is 2.12.

Take AATTCATGACTCTCTTATAGGTGTTTATAA: the binding signal (log2 normalized intensity) was determined as 1.54.

With GATGGCCCTCTCCAAGGCGGTGTGGAGGTC, the binding signal (log2 normalized intensity) was 1.52.

On to TCCTAGACCTTTGACCTTTATACCTGTACG, for which the binding signal (log2 normalized intensity) worked out at 5.75.

Consider CTGGACTTTGGCTGCAAAATTTGAACAAAA, for which the binding signal (log2 normalized intensity) amounted to 1.55.

For CATCTTTGAAGAGCACAGGGTCAGCAGATC, the binding signal (log2 normalized intensity) was 1.17.

With TCATCACTTAGGATATTCCAAGGGGTTAGA, the binding signal (log2 normalized intensity) was 1.

On to CCAAGCCCCAAAAACTTGGACTCTATAGCC, for which the binding signal (log2 normalized intensity) is 3.44.

Consider CCTTGCCCCACCCCCCACCCCAGAAGTATG, for which the binding signal (log2 normalized intensity) was determined as 6.2.

As for CCAATTATTGCGAGTTTAGGAGGGTTCCTG, the binding signal (log2 normalized intensity) amounted to 0.274.

Consider CCAAAGGTCATCTGTCACTCTAGATAAAGA, for which the binding signal (log2 normalized intensity) came to 1.51.

Take TATGCCACAGGGCAAGACACCAAAGGTCAC: the binding signal (log2 normalized intensity) is 4.33.

Turning to CCAGTGGCCCCTGAGCACTGTCTCAGGGTC, the binding signal (log2 normalized intensity) was 1.27.

Turning to TTTGGGGAAGGATAAAATGAAATCGCCTGA, the binding signal (log2 normalized intensity) is -0.952.

For the sequence ATCCTTCAACAATTCTATGAGTAGGTACAA, the binding signal (log2 normalized intensity) was found to be 1.06.

CTTAAAGTGTAAATATTTGAGGACACAAAG: the binding signal (log2 normalized intensity) is 1.18.

For the sequence CAGCAAAAATAGCCAAAATAAAGCAGCAAA, the binding signal (log2 normalized intensity) is -1.11.

On to AGGAAGCTCCAGCGGGGTTTGAATCCCGGG, for which the binding signal (log2 normalized intensity) is -1.19.

With CCCAAGTGCTCCTCCCCATCTCAGCCTCTC, the binding signal (log2 normalized intensity) was 2.14.

Take AGATGTCACAGGCAAGCAAGTGACATGTTG: the binding signal (log2 normalized intensity) is -1.13.

In the case of CTGCCGCGCCACTGCGTCCAGCCACAATTA, the binding signal (log2 normalized intensity) is -1.09.

ATGAAAGGTCCTTGAAAGTAAGCAGACACT: the binding signal (log2 normalized intensity) is -1.07.

For the sequence TGCAGCTGGGAGATAAGATAGCACCAGCCC, the binding signal (log2 normalized intensity) is -1.14.

For the sequence CACATTCACACAATCAGTGTGTTGACATTT, the binding signal (log2 normalized intensity) turned out to be 1.55.

Regarding TATCTAGGATGAGAATCCACCTGCCTGCTT, the binding signal (log2 normalized intensity) was -1.08.

Take ACATGACCTTTGTCCGTTCCTGCCTGGAGC: the binding signal (log2 normalized intensity) came to 4.82.

As to GTCCTCACAATAATGAGAAACGCCTGATAT, the binding signal (log2 normalized intensity) is -1.16.

AAATGGTGCAGCTGCTGAAACATTCAACTG: the binding signal (log2 normalized intensity) is -1.13.

On to CAGGGATCCCTGCAGCCCACAGCCCGCTGT, for which the binding signal (log2 normalized intensity) is -0.97.

For GAGGAAAACCAGCTCAGTGGAAATTGTCCT, the binding signal (log2 normalized intensity) is -0.386.

For the sequence GTAAAGGAGATTATCTAGACAAATTTGTTT, the binding signal (log2 normalized intensity) stood at 0.132.

For the sequence GAAAGATTAAGAGGCTACAACCAGACTTGG, the binding signal (log2 normalized intensity) was -1.18.

Turning to AACAGAGCCCAAGGCAAAGCAGATGTGCTA, the binding signal (log2 normalized intensity) was -1.11.

On to TCAGGAATGTGACCCCTTTCATGAATAAAT, for which the binding signal (log2 normalized intensity) amounted to 2.48.

On to TGTGACTTTTATCTTAGGTAATAAGCCTGA, for which the binding signal (log2 normalized intensity) is 1.2.

As for ACAATCTAAAAATGTTGAACTCACAAAAGT, the binding signal (log2 normalized intensity) was determined as 0.91.

For the sequence CCTGAAGGGTGTTGTGGAATGTGCTTGGAC, the binding signal (log2 normalized intensity) came to 1.94.

As for GCCACTGCAGGGAGGACAGACTCTGGGAGA, the binding signal (log2 normalized intensity) was -1.16.

As for TGGACTGGGGACCTGGTCTGAGATATCTTT, the binding signal (log2 normalized intensity) was determined as 0.741.

Turning to AGCCCCAACCCACTGTTGCCCCTTCCAAAG, the binding signal (log2 normalized intensity) is 4.68.

For CAGCTGTCTATCCTTATTTATCTTCCAGCG, the binding signal (log2 normalized intensity) was determined as 0.943.

Take CCCACGTACATTGCACCCTCCAGGAGCCCC: the binding signal (log2 normalized intensity) amounted to 2.07.

Regarding GGCACTGCTCCCTGCCCCTACCCCCACCCT, the binding signal (log2 normalized intensity) came to 5.65.

For the sequence AAACTCCTTCAGTTCTTATCTCGTACTTCT, the binding signal (log2 normalized intensity) worked out at 1.16.

Take TACATTCCAAATACGATAATGTCAAACATC: the binding signal (log2 normalized intensity) was -0.408.

On to GAGGACAACCAGAGGTCACTTTTATCACCA, for which the binding signal (log2 normalized intensity) amounted to 1.2.

Take ACCAAAGGAGTCCTGGCTGACAGATACCGT: the binding signal (log2 normalized intensity) was -1.1.

On to AGGGTTACAAACTTCAAGGTCCATTTGAGG, for which the binding signal (log2 normalized intensity) was found to be 0.52.

On to CTTTAGCACCTTCATCCAAAGATGACCTTT, for which the binding signal (log2 normalized intensity) came to 7.62.

As for CATTATTAGCAGCAGGTTATCTAATGGAGA, the binding signal (log2 normalized intensity) is 0.864.

GAACCTGCCCTCTGTCCCATGGTGTACAAG: the binding signal (log2 normalized intensity) came out at 1.26.

Turning to TAGGCAAAAGACAGTGATTGTCACAAGACT, the binding signal (log2 normalized intensity) was -1.12.

For the sequence ACACTTGCCCTTTGCCCTCACTGGTAGAAG, the binding signal (log2 normalized intensity) stood at 5.09.

For the sequence CCTGCAAGGACAAAGGTCATGTTTTCAAAC, the binding signal (log2 normalized intensity) worked out at 5.78.

For TTTTATGTTAAGATCAAACAGGGACAGATG, the binding signal (log2 normalized intensity) stood at 0.58.
